Measurements taken from publication PMC5718245.
No constants are given. Whether binding was seen depends on the method and setting. In cells and extracts the contact can be indirect. Some results given as binding are weak or reduced against the parent protein; the word gives no strength.

Protein sequences, listed by entry. Tags and fused reporters are not part of them. Lines headed by an entry give the natural chain unless they say otherwise; changes in a name come on top.
UniProt Q792Q4: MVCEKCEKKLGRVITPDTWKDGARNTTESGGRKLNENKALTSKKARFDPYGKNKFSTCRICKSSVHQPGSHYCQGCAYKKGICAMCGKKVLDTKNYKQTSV

What was measured:
[1] = target: FL myc-tagged SAP97 (synapse associated protein of 97 kDa) (UniProt Q62696); assay: co-IP; HEK293 cells overexpressing both proteins; 1% NP-40 lysis buffer; SAP97 immunoprecipitated with myc IgG on DynaBeads Protein G (Fig. 1D); immunoblot
[2] = target: FL HA-tagged CRIPT (cysteine-rich interactor of PDZ3) (UniProt Q792Q4); assay: co-IP; HEK293 cells overexpressing both proteins; 1% NP-40 lysis buffer (25 mM Tris-HCl pH 7.4, 150 mM NaCl, 1 mM EDTA, 5% glycerol); antibody on DynaBeads Protein G, 1 h at RT; IP with anti-HA in Fig. 1B, IP antibody of Fig. 1C not stated; immunoblot
[3] = target: endogenous CRIPT (rat (endogenous in mixed spinal cord cultures)) (UniProt Q792Q4); assay: co-IP; lysates of DIV14 rat mixed spinal cord cultures, both proteins endogenous; IP with anti-CRIPT IgG on DynaBeads Protein G; blot with SAP97 and CRIPT antibodies together

binding [1]	binding [2]	Substance	further results
no binding		FL CRIPT V101A (from UniProt Q792Q4 1-101)	
	binds	FL myc-tagged SAP97 (synapse associated protein of 97 kDa) (from UniProt Q62696 1-911)	
	binds	myc-tagged FL SAP97 with mutations in the PDZ2 domain (K323A, K326A) (from UniProt Q62696 1-911)	

The next lines start with the substance.

Substance	binding [1]	binding [2]	further results
FL HA-tagged CRIPT (cysteine-rich interactor of PDZ3) (from UniProt Q792Q4 1-101)	binds		
endogenous SAP97 (from UniProt Q62696 1-911)			binding [3]: binds
myc-tagged FL SAP97 with mutations in the PDZ3 domain (H469A, R470A) (from UniProt Q62696 1-911)		no binding	
